These results are taken from ChEMBL document CHEMBL4888484, “Replenishing the malaria drug discovery pipeline: Screening and hit evaluation of the MMV Hit Generation Library 1 (HGL1) against asexual blood stage Plasmodium falciparum ,using a nano luciferase reporter read-out” (2022).

In all, about 150,000 compounds went through this assay and about 540 (0.36%) showed an effect of 50% or more. This is one part of the list.

The assay has as its system Plasmodium falciparum. The assay can be described thus: Primary screen in NF54 nanoGlo assay, in single point, at 2uM, 72h; a lower Z score goes with more inhibition. The format is functional, Erythrocyte. As to conditions: timepoint 72 hour.
As to `CO[C@H]1[C@H](NC(=O)C(C)C)c2ccccc2C12CCN(Cc1ccc3ncccc3c1)CC2`, the “% Inhibition” value is recorded as -5% and the Z score came to 0.69.
For `Cn1nc(-c2cnccn2)cc1CNC(=O)C(C)(C)C` the same measures were 11% and -1.42.
As to `Cc1noc(C)c1CNCc1cccnc1`, the “% Inhibition” value is given as -7% and the Z score was 0.71.
In the case of `Cc1cnc(C(=O)N2CCC3(CC2)C[C@H](CO)N(C(=O)c2ccccc2)C3)cn1`, the “% Inhibition” value was 4% and the Z score is -0.46.
Take `O=C(N[C@@H](Cn1nccn1)c1ccccc1)c1cc(-c2ccccc2)n[nH]1`: the “% Inhibition” value is listed as -4% and the Z score is listed as 0.69.
On the same counts, the results for `C#CCCC1(CCC(=O)N2Cc3cccc(OC)c3C2)N=N1` are -15% and 1.87.
Turning to `CCn1nccc1N1CCC[C@H](NC(=O)CCc2c(C)nn(C)c2C)C1=O`, the “% Inhibition” value was -4% and the Z score is listed as 0.57.
For the compound `CO[C@@H](C)CCOC(=O)c1ccc(Cl)cn1`, the “% Inhibition” value is listed as -6% and the Z score was determined as 0.85.
Take `COc1ccccc1NCC(F)(F)F`: the “% Inhibition” value worked out at 1% and the Z score was -0.14.
On the same counts, the results for `O=c1c2ccccc2ncn1Cc1noc(-c2ccc(Br)cc2)n1` are -20% and 2.44.
`Cc1oncc1NC(=O)Nc1ccc(Cl)c(Cl)c1`: the “% Inhibition” value came to 3% and the Z score is given as -0.39.
`Cc1cc2nc(-c3cccs3)cc(C(=O)NC3CC(C)(C)N(C)C(C)(C)C3)c2cc1C`: the “% Inhibition” value was -2% and the Z score is reported as 0.2.
Consider `Cc1ccc(Cn2cc([C@H](CC(=O)NCc3ccco3)c3cccc(C#N)c3Cl)c3ccccc32)cc1`, for which the “% Inhibition” value is -1% and the Z score came to 0.16.
For `O=C(Nc1ccn2nccc2n1)[C@@H]1CCC=CCCC1` the same measures were -2% and 0.39.
On the same counts, the results for `CCc1nc2ccc(C(=O)N[C@H]3CCN(Cc4ccsc4)C3)cc2s1` are 2% and -0.33.
Take `CCn1nc(CC2CCN(C)CC2)nc1-c1ccccc1-n1cncn1`: the “% Inhibition” value is reported as -14% and the Z score turned out to be 1.28.
For `O=C1CC(c2ccccc2)N(C(=O)[C@@H]2CC[C@H](C(=O)O)C2)CCN1` (stereo partly specified) the same measures were -9% and 0.96.
On the same counts, the results for `CC(C)NC(=O)Cn1cnc2nc(N3CCCCC3)sc2c1=O` are -1% and 0.14.
As to `C[C@@]1(c2cccs2)CC(c2cccs2)=Nc2ccccc2N1`, the “% Inhibition” value was -6% and the Z score came to 0.83.
For `COC(=O)CN1C(=O)N(c2ccc(C)c(F)c2)c2ncccc2S1(=O)=O` the same measures were -15% and 1.5.
In the case of `COCc1nn2c(C(F)(F)F)cc(-c3cccnc3)nc2c1-c1ccc(OC)c(OC)c1`, the “% Inhibition” value is on record as -8% and the Z score was 0.78.
For `Cc1ccc(S(=O)(=O)c2ccc(C(=O)N3CCN(c4cccc(Cl)c4)CC3)s2)cc1` the same measures were -20% and 1.82.
Regarding `COCC[C@](C)(O)CNc1ccc2nnc(-c3ccsc3)n2n1`, the “% Inhibition” value is -5% and the Z score came out at 0.76.
Turning to `CCn1nc(C(=O)NC2CCCC2)cc1-c1ccc2c(c1)OCO2`, the “% Inhibition” value turned out to be 6% and the Z score is -0.81.
Take `Nc1ncc(Cl)cc1S(N)(=O)=O`: the “% Inhibition” value was -12% and the Z score worked out at 1.41.
As to `CN(C)CCn1cc(Br)cn1`, the “% Inhibition” value is reported as -1% and the Z score was found to be 0.12.
Consider `O=C(NCc1cn(-c2ccsc2)nn1)NC1CCOCC1`, for which the “% Inhibition” value stood at 2% and the Z score was -0.35.
Take `Cc1ccc(F)c(-c2cc(NC(=O)[C@H](C)n3cncn3)[nH]n2)c1`: the “% Inhibition” value was -14% and the Z score is recorded as 1.94.
In the case of `CC1COCC(C)N1C(=O)c1cccnc1OCc1ccccc1F` (stereo unspecified), the “% Inhibition” value is reported as -2% and the Z score turned out to be 0.32.
For `CNC(=O)CCN(C)C(=O)c1c(C)cccc1OC` the same measures were -14% and 2.69.
As for `CCOCCNC(=O)[C@@H]1CN(Cc2nc3ccccc3c(=O)[nH]2)CCO1`, the “% Inhibition” value is listed as -11% and the Z score is given as 1.16.
`CC(C)[C@H](NC(=O)CCc1ccno1)c1ncnn1C`: the “% Inhibition” value was -12% and the Z score stood at 1.65.
For `Cc1nn(-c2ncc(C(F)(F)F)cc2Cl)c(=O)n1-c1cccc(F)c1` the same measures were 33% and -4.32.
`CCCC(=O)Nc1cccc(NC(=O)N2CCN(c3ncc[nH]c3=O)CC2)c1`: the “% Inhibition” value worked out at 4% and the Z score was -0.49.
On the same counts, the results for `Cc1sc(N2C(=O)C3CCCCC3C2=O)nc1-c1ccccc1` (stereo unspecified) are -3% and 0.53.
`N#Cc1cccc(CN[C@@H](CCO)C(F)F)c1`: the “% Inhibition” value was 2% and the Z score was -0.32.
Turning to `CCn1cc(NC(=O)N2CCc3[nH]nc(C(=O)OC)c3C2)c(C)n1`, the “% Inhibition” value is -11% and the Z score turned out to be 1.65.
On to `CC(=O)Oc1c(-c2ccc(NC(=O)c3ccc4c(c3)OCO4)cc2)c(C2CC2)nn1-c1cccc(F)c1`, for which the “% Inhibition” value amounted to 2% and the Z score was -0.33.
In the case of `CN(CCNC(=O)N1CCCCCCC1)C1CC1`, the “% Inhibition” value is -8% and the Z score worked out at 0.9.
With `Cc1ccc(-c2ccc(=O)n(CCC(=O)NCCN3CCCC[C@@H]3C)n2)cc1`, the “% Inhibition” value is -1% and the Z score turned out to be 0.09.
On to `CCN(CC)c1ccc(-c2ccc3ccccc3n2)cc1`, for which the “% Inhibition” value came out at 3% and the Z score was -0.49.
Take `CCc1[nH]c([C@H]2CC(=O)N(C3CCCC3)C2)nc1-c1ccc(Cl)cc1`: the “% Inhibition” value is on record as -2% and the Z score is 0.37.
Take `C[C@@H](CC(=O)N1CCC(n2ccnn2)CC1)c1ccc(F)cc1F`: the “% Inhibition” value was -11% and the Z score is given as 1.44.

The % Inhibition is the relative decrease from the control value, in per cent.
